From a collection of fitness landscapes (doi:10.1016/j.celrep.2020.107928)
In all, about 81,000 sequences were measured (“one-hybrid fitness for binding NBS DNA”: median about -0.1, highest 2% from about 0.36 on). The list shows a part of the results.

B1: Caulobacter ParB omega fusion; a variant is named by its letters at X, in order, B8GW30 (parent)
chain: MESVVVGEPGMSEGRRGLGRGLSALLGEVDAAPAQAPGEQLGGSREAPIEILQRNPDQPRRTFREEDLEDLSNSIREKGVLQPILVRPSPDTAGEYQIVAGERAWRAAQRAGLKTVPIMVRELDDLAVLEIGIIENVQRADLNVLEEALSYKVLMEKFERTQENIAQTIGKSXSHVANXMRLLXLPDEVQSYLVSGELTAXHARAIAAAADPVALAKQIIEGGLSVRETEALARKAPNLSAGKSKGGRPPRVKDTDTQALESDLSSVLGLDVSIDHRGSTGTLTITYATLEQLDDLCNRLTRGI

Variants of: B1
Test: one-hybrid fitness for binding NBS DNA (the Noc-binding site; scaled: cognate 1, non-cognate 0); higher = stronger binding
Conditions: with NBS DNA site
Summary of the method: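 In E. coli USO, a HIS3 reporter with its site placed 19 bp from the promoter was used to select Caulobacter ParB variants randomised at four specificity codons. Growth lasted 48 hours at 37°C on histidine-free M9 containing 0.1 mM IPTG and 5 mM 3-AT. Fitness was taken as the log change in variant-to-wild-type read ratio from Illumina sequencing of pre- and post-selection plasmids, rescaled between the non-cognate and cognate sites.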

Row | Variant | one-hybrid fitness for binding NBS DNA
1 | RSAL | ≤ 0.2
2 | ATIT | ≤ 0.2
3 | LNKM | ≤ 0.2
4 | MMML | ≤ 0.2
5 | TKDS | ≤ 0.2
6 | QHTF | ≤ 0.2
7 | PTVG | ≤ 0.2
8 | RPPE | ≤ 0.2
9 | KKTI | ≤ 0.2
10 | KGSM | ≤ 0.2
11 | MWIF | ≤ 0.2
12 | SSNP | ≤ 0.2
13 | PPEG | ≤ 0.2
14 | GWTC | ≤ 0.2
15 | IQCV | ≤ 0.2
16 | NKNM | ≤ 0.2
17 | YYMC | ≤ 0.2
18 | AAVK | ≤ 0.2
19 | IYDP | ≤ 0.2
20 | HATY | ≤ 0.2
21 | QMAV | ≤ 0.2
22 | IRVQ | 0.203
23 | HSWF | ≤ 0.2
24 | DNMW | ≤ 0.2
25 | HQIS | ≤ 0.2

Row | Variant | one-hybrid fitness for binding NBS DNA
26 | RIPL | ≤ 0.2
27 | KYLP | ≤ 0.2
28 | ESHL | ≤ 0.2
29 | VFVF | ≤ 0.2
30 | SIHR | ≤ 0.2
31 | MVHG | ≤ 0.2
32 | CLSK | ≤ 0.2
33 | NNGG | ≤ 0.2
34 | ISCK | ≤ 0.2
35 | QYWR | 0.414
36 | HSVF | ≤ 0.2
37 | HNRA | ≤ 0.2
38 | SFPV | ≤ 0.2
39 | LKRK | ≤ 0.2
40 | QLGK | ≤ 0.2
41 | QKIK | ≤ 0.2
42 | QDQC | ≤ 0.2
43 | DTKN | ≤ 0.2
44 | YKSR | ≤ 0.2
45 | PERA | ≤ 0.2
46 | PDME | ≤ 0.2
47 | KPHM | ≤ 0.2
48 | VSYI | ≤ 0.2
49 | SLSK | ≤ 0.2
50 | MPNM | ≤ 0.2

Row | Variant | one-hybrid fitness for binding NBS DNA
51 | MEKW | ≤ 0.2
52 | HSWP | ≤ 0.2
53 | VALG | ≤ 0.2
54 | PRCF | ≤ 0.2
55 | WMPP | ≤ 0.2
56 | RGTR | ≤ 0.2
57 | LMNY | ≤ 0.2
58 | WGNG | ≤ 0.2
59 | GKWG | ≤ 0.2
60 | HIGR | ≤ 0.2
61 | TYKR | 0.229
62 | GERR | ≤ 0.2
63 | SWAR | ≤ 0.2
64 | GPYR | ≤ 0.2
65 | RVMD | ≤ 0.2
66 | IVSC | ≤ 0.2
67 | QWIS | ≤ 0.2
68 | TTAE | ≤ 0.2
69 | EVNE | ≤ 0.2
70 | PPQM | ≤ 0.2
71 | SIQN | ≤ 0.2
72 | CTRH | ≤ 0.2
73 | SCNR | ≤ 0.2
74 | PWCR | ≤ 0.2
75 | LLTL | ≤ 0.2

Row | Variant | one-hybrid fitness for binding NBS DNA
76 | SAWC | ≤ 0.2
77 | VAGW | ≤ 0.2
78 | HLRF | ≤ 0.2
79 | RCWK | ≤ 0.2
80 | GTTL | ≤ 0.2
81 | RESW | ≤ 0.2
82 | MMVT | ≤ 0.2
83 | WTHF | ≤ 0.2
84 | TVAI | ≤ 0.2
85 | GMLG | ≤ 0.2
86 | QYPT | 0.255
87 | HKFT | ≤ 0.2
88 | WNKG | ≤ 0.2
89 | HVCC | ≤ 0.2
90 | LERF | ≤ 0.2
91 | ADHS | ≤ 0.2
92 | RACD | ≤ 0.2
93 | HLRC | ≤ 0.2
94 | DATP | ≤ 0.2
95 | VVPA | ≤ 0.2
96 | TTMG | ≤ 0.2
97 | ILKH | ≤ 0.2
98 | NSFR | ≤ 0.2
99 | GPIV | ≤ 0.2
100 | PLEG | ≤ 0.2

Row | Variant | one-hybrid fitness for binding NBS DNA
101 | AGPI | ≤ 0.2
102 | PMNG | ≤ 0.2
103 | RWWC | ≤ 0.2
104 | VCQY | ≤ 0.2
105 | GVIP | ≤ 0.2
106 | DLPA | ≤ 0.2
107 | KYLR | ≤ 0.2
108 | AVHR | ≤ 0.2
109 | TQPK | ≤ 0.2
110 | FKTG | ≤ 0.2
111 | TSRF | ≤ 0.2
112 | WFSV | ≤ 0.2
113 | RIMD | ≤ 0.2
114 | HNFA | ≤ 0.2
115 | RRKA | 0.712
116 | FHMR | ≤ 0.2
117 | EGRC | ≤ 0.2
118 | TGCY | ≤ 0.2
119 | HCWG | ≤ 0.2
120 | RALW | ≤ 0.2
121 | SRVT | ≤ 0.2
122 | HRMW | ≤ 0.2
123 | NQCI | ≤ 0.2
124 | TSQV | ≤ 0.2
125 | RYSP | ≤ 0.2

Row | Variant | one-hybrid fitness for binding NBS DNA
126 | CPPH | ≤ 0.2
127 | LRIV | ≤ 0.2
128 | RQCQ | ≤ 0.2
129 | FKNT | ≤ 0.2
130 | LINL | ≤ 0.2
131 | GLTW | ≤ 0.2
132 | RINQ | ≤ 0.2
133 | KAWC | ≤ 0.2
134 | CTKS | ≤ 0.2
135 | RFHL | ≤ 0.2
136 | VASV | ≤ 0.2
137 | LTIP | ≤ 0.2
138 | WQMC | ≤ 0.2
139 | GGVF | ≤ 0.2
140 | QMGK | 0.221
141 | SASW | ≤ 0.2
142 | VAPM | ≤ 0.2
143 | RHMW | ≤ 0.2
144 | TQDK | ≤ 0.2
145 | PAMN | ≤ 0.2
146 | CFAW | ≤ 0.2
147 | RMLW | ≤ 0.2
148 | TLWS | ≤ 0.2
149 | HLQL | ≤ 0.2
150 | REVW | ≤ 0.2

Row | Variant | one-hybrid fitness for binding NBS DNA
151 | QLNT | 0.45
152 | PRQC | ≤ 0.2
153 | LLWC | ≤ 0.2
154 | NQWL | ≤ 0.2
155 | SGIR | ≤ 0.2
156 | GCTT | ≤ 0.2
157 | RMYQ | ≤ 0.2
158 | TVSN | ≤ 0.2
159 | KTAL | ≤ 0.2
160 | MPQS | ≤ 0.2
161 | DRIF | ≤ 0.2
162 | HRYC | ≤ 0.2
163 | HLPN | ≤ 0.2
164 | VQSM | ≤ 0.2
165 | RYAH | ≤ 0.2
166 | EINM | ≤ 0.2
167 | QMQM | ≤ 0.2
168 | RALR | 0.32
169 | YTIL | ≤ 0.2
170 | SLFE | ≤ 0.2
171 | YPVL | ≤ 0.2
172 | YHAN | ≤ 0.2
173 | PTVI | ≤ 0.2
174 | DIRV | ≤ 0.2
175 | QIAH | ≤ 0.2

Row | Variant | one-hybrid fitness for binding NBS DNA
176 | WRKC | ≤ 0.2
177 | FSVC | ≤ 0.2
178 | PQMR | ≤ 0.2
179 | VMQC | ≤ 0.2
180 | DSDR | ≤ 0.2
181 | DYYL | ≤ 0.2
182 | QMYY | ≤ 0.2
183 | TCQR | ≤ 0.2
184 | NQCR | ≤ 0.2
185 | CDET | ≤ 0.2
186 | TLMM | ≤ 0.2
187 | TWSY | ≤ 0.2
188 | NQWS | ≤ 0.2
189 | PMYE | ≤ 0.2
190 | QCHT | 0.551
191 | LDQG | ≤ 0.2
192 | ASPQ | ≤ 0.2
193 | NVSV | ≤ 0.2
194 | LFEC | ≤ 0.2
195 | PGLR | ≤ 0.2
